Reference: the RNAGym collection of RNA variant scans (doi:10.7554/elife.90254)
Read counts are not given, so values of variants with three or more changes are uncertain.

B1: OR4K15 (parent)
chain: GUUAACGGUCAUAGGCCAUGGAAACUAGGAGCACCAUUUCGCUGCCAGUGAAGAAAUGAACAAAGAAAAUCUGGGCCAGGCAGGCAUCAAAAGAAAUAGUCUUGCGCUCAACCAGAAAGUCUGUAAUCAUUUUAAGGGUA

Variants of: B1
Assay: self-cleavage, relative activity (ratio to wild type); higher = more cleavage; in vitro, sequencing; the parent is a self-cleaving ribozyme

Row | Variant | self-cleavage
1 | C6U A68G U122C | 0.66
2 | A62U A91U U100C | 2.48
3 | A11C U37C A54G | 1.72
4 | A23U G50A U57C A66U A90G | 1.05
5 | A11G A36U C42U C85U A116G | 0.32
6 | U49C A94G U103C U120C | 0.42
7 | A5U A51G A64U A90G A111G | 0.09
8 | A22G A66G A82G A86G | 0.34
9 | A52G A64G A69G A78G U87C A95G | 0.19
10 | A11U U127C U131C | 1.33
11 | U39C A52G U122C | 1.74
12 | A36U A96G A116G | 0.37
13 | A11G A62G A96G A114G | 0.17
14 | A5U A24G A135G | 0.93
15 | U37C U43C A91G U133C | 1.41
16 | A11G A33G U97C | 0.63
17 | A60G G73A U131C | 0.15
18 | A82G U102C A114G | 0.22
19 | U2C A91G A111G | 0.14
20 | U12A A54G A78G | 0.36
21 | A96G U100C G106A U131C | 0

Row | Variant | self-cleavage
22 | U43C G48A A95G U103C U132C | 1.15
23 | A63G A66U A117G | 1.78
24 | A22G A24U U37C | 1.5
25 | A5G U39C G73U U139C | 0.61
26 | A5G U97A A114G | 0.19
27 | U9G A24G A33G C105U | 0.06
28 | A68G C81A A82G A86G A94G A118G U139A | 0.09
29 | A27U C76U G79A A89G | 0.06
30 | U2C A13G A52G U108A | 0.22
31 | A23G A94U U103A G104A U130C | 0.02
32 | U19C A54G U57C | 0.25
33 | A11G A59G A92G | 2.27
34 | A56G A116G A117G | 0.25
35 | U70C A90U U120C | 0.13
36 | A30U A33G U122A | 1.2
37 | C32U U39C A60G | 2.03
38 | A18U A33G G48A A62G A94G A129G | 0.17
39 | A18G A23G A27G A56G | 0.89
40 | A51G U57A A116G | 0.46
41 | G41A A114C U133A | 0.01
42 | A47G A51G A111U A114U | 0.02

Row | Variant | self-cleavage
43 | A33G A67U U130C | 0.32
44 | A22G A59G A78G A90G U122C | 0.09
45 | A22G G93U U108A | 0.07
46 | A51G A55G U97C | 0.41
47 | A30G C32U A98U | 1.14
48 | U38C A62G G75A | 0.17
49 | A30G U49C G50C | 0.36
50 | A23G U103C A118G | 0.38
51 | U2C A5U C40U U49C A68G | 0.67
52 | U103C A126G U131C | 0.4
53 | A67G A78U U139C | 0.49
54 | A22U A30G U120C A125G | 0.1
55 | A55G G80A U87A U97A | 0.18
56 | A92G A114G A134U | 0.2
57 | U3C U26C A63G | 1.3
58 | U2C U9C A30U | 1.86
59 | A78G A95G A114G | 0.08
60 | A22U U39G A62G U70C A86G A111G | 0
61 | A18U U39G A66U | 1.28
62 | A23G C76G A111G A116U | 0
63 | U9G G74U G106A | 0.05

Row | Variant | self-cleavage
64 | U49C U57C U124C | 0.79
65 | C6A A86G A110G A118G | 0.05
66 | A30G A114U U120G | 0.01
67 | A47U U122C U131C U139A | 0.1
68 | G58U A92G A111G U122G | 0
69 | A22G U39C A114C U120C A126G | 0.01
70 | A52G A129G U133C | 0.61
71 | G7A G28A A62U A82G A135G | 0.47
72 | U12A A54U U100C | 1.66
73 | A5G A54G A56G A78U U127C | 0.11
74 | U37C G44A A60G A63G | 1.53
75 | A11G A47G A64U | 1.18
76 | U43C U49C A117G | 1.09
77 | A69G U70A A91U | 1.98
78 | U19A C85U A89G A95G A111G A118U | 0.01
79 | C17A G48A C81U | 0.45
80 | U9C U26C A30G G106U | 0
81 | A36C U97C A118G | 1.79
82 | U19C A30U U70C A94G U103C | 0.71
83 | U39A U72C U122C | 0.11
84 | A47G A54G A96G U120C | 0.93
